# Data from PubChem BioAssay AID624418 (National Center for Advancing Translational Sciences (NCATS), 2012).
# Screen size: about 410,000 compounds; about 530 (0.13%) were called active. The inconclusive results got no clear call from the source; some entries with a clear call stand among them for comparison. Calls come from the whole dose curve; as a rule, active = well fitted inhibition curve with a large enough effect; inconclusive = small, poorly fitted or top-dose-only effect, or another doubt; inactive = no such curve, though single readings can be large or run the other way. A potency beside an inconclusive call is a rough fit, not a confirmed value.
# Test: qHTS of GLP-1 Receptor Inverse Agonists: Cytotox Screen
# Conditions: HEK293 cAMP-luciferase reporter cells, luminescence, 24 h; activity change, negative = inhibition: at 38.3 µM (top of the series) unless noted
# In short: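 Quantitative HTS format, 1536 wells, 200 cells/uL seeded. Compounds: 23 nL, 24 h, 37 °C. Detection: luciferase reagent, luminescence at 12 min RT; decreased signal taken as cytotoxic.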
# % is set by controls: 0 for no effect and ±100 for the full control effect; potency is the fitted concentration of half-maximal effect.
SMILES,Potency,"activity change, negative = inhibition"
CC(=O)Oc1ccc(-c2ccc(C(=O)OCC(=O)N(C)CC(=O)Nc3ccccc3Cl)cc2)cc1,"inconclusive: 28.2 µM [inhibitor, single point]",–
O=C1/C(=C/c2cccnc2)CCC/C1=C\c1cccnc1,"inconclusive: 6.31 µM [inhibitor, partial curve, poor fit]",–
Cc1ccc(OCC(=O)Nc2cc(-c3nc4ccccc4[nH]3)ccc2C)c(C)c1,–,inactive: 3.54%
NNC(=O)c1ccc2[nH]c3c(c2c1)CCCC3,"inconclusive: 3.55 µM [inhibitor, full curve]",–
O=Cc1cc(N=Nc2cccc(C(=O)O)c2)ccc1O,"inconclusive: 8.91 µM [inhibitor, partial curve]",–
CCOC(=O)c1ccc(N=c2ssnc2Cl)cc1,–,inactive: -2.29%
CCC(=O)OCCNc1cc(SCCC(=O)OC)c2nonc2c1[N+](=O)[O-],"inconclusive: 10 µM [inhibitor, partial curve, poor fit]",–
CCOC(=O)c1c(C)[nH]c(C(=O)OCC(=O)Nc2sccc2C(N)=O)c1C,"inconclusive: 11.2 µM [inhibitor, single point]",–
Cc1ccc(S(=O)(=O)Nc2cccc3c2O[C@H](CN(C)Cc2ccccc2)[C@@H](C)CN([C@H](C)CO)C3=O)cc1,"inconclusive: 7.08 µM [inhibitor, partial curve, poor fit]",–
COc1ccccc1CNc1nc(NC(C)C)nc2ccsc12,"inconclusive: 12.6 µM [inhibitor, partial curve, poor fit]",–
COc1ccc(NC(=O)Cc2nc3ccccc3[nH]2)cc1,"inconclusive: 28.2 µM [inhibitor, single point]",–
COc1ccccc1N/N=C/c1c(CO)cnc(C)c1O,"inconclusive: 11.2 µM [inhibitor, single point]",–
COc1cc([N+](=O)[O-])cc(/C=N/NC(=O)Cn2cncn2)c1O,"inconclusive: 12.6 µM [inhibitor, single point]",–
O=C(/C=C/c1ccccc1)c1ccc(NC2=NCCCS2)cc1,"inconclusive: 14.1 µM [inhibitor, partial curve, poor fit]",–
COc1ccc(-c2cc(C(=O)Nc3ccc(C(N)=O)cc3)c3ccccc3n2)cc1,"inconclusive: 14.1 µM [inhibitor, single point]",–
Cc1ccccc1Nc1nc(N)nc(-c2oc3ccccc3c2C)n1,"inconclusive: 11.2 µM [inhibitor, single point]",–
COc1cc(/C=N/O)cc(Br)c1OS(=O)(=O)c1ccc(C)cc1,"inconclusive: 22.4 µM [inhibitor, single point]",–
